From PubChem BioAssay AID504845 (National Center for Advancing Translational Sciences (NCATS), 2011)
Where “and” joins values, the source holds several entries; their conditions need not be identical. Identical values can stand only once. About 150 (0.038%) of roughly 390,000 compounds were called active. Roughly 3% stayed inconclusive and do not appear here. Calls come from the whole dose curve; as a rule, active = well fitted inhibition curve with a large enough effect; inconclusive = small, poorly fitted or top-dose-only effect; inactive = no such curve, though single readings can be large or run the other way. The list shows a part of the results, in another mix than the full data. Some structures have more than one record in an assay (separate samples or runs), and their calls can disagree.

biological target: Regulator of G-protein signaling 4 (Homo sapiens) (UniProt P49798); experiment: Inhibitors of Regulator of G Protein Signaling (RGS) 4: qHTS; conditions: Transcreener GDP fluorescence polarization, RGS4-accelerated GTP hydrolysis; series mostly up to 114 µM; activity change, negative = inhibition: at the top concentration; note: nearly all actives have a fitted effect of over 75% in size
How it was run: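 MLSMR compounds (23 nl, pin-transferred) preincubated 10 min at room temperature with a 500nM (2x) first reagent, then RGS4 at 900nM (2x) plus Transcreener GDP mix added; fluorescence polarization (620/688 nm) read before and after 90 min at 30 °C.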
% is set by controls: 0 for no effect and ±100 for the full control effect; potency is the fitted concentration of half-maximal effect.

Chain of UniProt P49798 (P49798 whole entry, looked up): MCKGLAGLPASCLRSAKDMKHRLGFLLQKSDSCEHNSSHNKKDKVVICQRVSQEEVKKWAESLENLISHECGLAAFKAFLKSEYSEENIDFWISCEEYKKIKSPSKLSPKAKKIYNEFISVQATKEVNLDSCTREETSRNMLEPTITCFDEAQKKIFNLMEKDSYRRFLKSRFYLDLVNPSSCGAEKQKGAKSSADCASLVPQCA

| SMILES | activity change, negative = inhibition | Potency |
| --- | --- | --- |
| COc1ccc(S(=O)(=O)/N=C2/NC(=O)/C(=C\c3ccco3)S2)cc1 | inactive: 8.57% |  |
| Cc1ccc(NC(=O)Cn2nc(C)cc2C)cc1 | inactive: 54.2% |  |
| C[C@](N)(Cc1ccc(O)c(O)c1)C(=O)O |  | inactive and active: 26.7 µM |
| OCC[C@@H]1C[C@@H](O)[C@H](O)[C@]2(OCCc3ccccc32)O1 | inactive: 2.7% |  |
| CN1C(=O)CC(=O)N(C)c2cc(S(=O)(=O)N(C)Cc3ccccc3)ccc21 | inactive: 2.43% |  |
| Cc1ccc(C(=O)N/C(=C\c2cn(C)c3ccccc23)C(=O)NCCCN2CCOCC2)cc1 | inactive: 70.9% |  |
| CCCCCCC/C=C\CCCCCCCCC(=O)O |  | active: 23.8 µM |
| NCCCC(=O)O | inactive: -15.9% |  |
| NCCc1cnc[nH]1 |  | inactive |
| CC12CCC(C(=O)N(NC(=O)c3cccnc3)C1=O)C2(C)C (centres undefined) | inactive: 75.8% |  |
| CCOC(=O)/C(=C/c1c[nH]c2ccccc12)NC(C)=O | inactive: -1.28% |  |
| NS(=O)(=O)c1cc2c(cc1Cl)NC=NS2(=O)=O |  | inactive |
| O=C(O)Cc1c[nH]c2ccc(O)cc12 |  | inactive and active: 21.2 µM |
| CC1=C(CC(=O)O)c2cc(F)ccc2/C1=C/c1ccc(S(C)=O)cc1 (centres undefined) | inactive: -14.5% |  |
| CS/C(=N\S(=O)(=O)c1cccs1)NC(=O)CSc1nc2ccccc2s1 | inactive: -2% [at 11.4 µM] |  |
| Cc1ccc(CN2CCN(C3CCOCC3)CC2CCO)cc1 (centres undefined) | inactive: 60.5% |  |
| CCCCC/C=C\C/C=C\CCCCCCCC(N)=O |  | active: 23.8 µM |
| CN(C)C/C=C(/c1ccc(Br)cc1)c1cccnc1 | inactive: 31.5% |  |
| Cc1ccc2c(c1)c1c3n2CCNC3CCC1 (centres undefined) |  | inactive |
| Oc1ccc(/C=C/c2cc(O)cc(O)c2)cc1 | inactive: -19.5% |  |
| OCC[C@H]1C[C@@H](O)[C@H](O)[C@]2(OCCc3ccccc32)O1 | inactive: -6.17% |  |
| CCCCC[C@H](O)/C=C/C1=C(CCCCCCC(=O)O)C(=O)CC1 | inactive: -8.2% |  |
| CCCc1c(-c2ccc(O)cc2)nn(-c2ccc(O)cc2)c1-c1ccc(O)cc1 | inactive: -7.67% |  |
| CC(=O)OCC(=O)[C@@]1(O)CCC2C3CCC4=CC(=O)CCC4(C)C3C(=O)CC21C (some centres undefined) | inactive: -4.92% |  |
| COc1ccc(/C=C(\NC(=O)c2ccc(OC)cc2)C(=O)NC(CCSC)C(=O)O)cc1 (centres undefined) | inactive: 61.1% |  |
| CCOC(=O)C(CSCc1ccccc1)NC(=O)OC(C)(C)C (centres undefined) | inactive: 85.9% |  |

| SMILES | activity change, negative = inhibition | Potency |
| --- | --- | --- |
| C/C(=N\Nc1nncc2ccccc12)c1ccc(OCC(=O)N(C)C)cc1 | inactive: 54.1% |  |
| C[C@H]1O[C@@H](O[C@H]2[C@@H](O)C[C@H](O[C@H]3[C@@H](O)C[C@H](O[C@H]4CC[C@@]5(C)[C@H](CC[C@@H]6[C@@H]5C[C@@H](O)[C@]5(C)[C@@H](C7=CC(=O)OC7)CC[C@]65O)C4)O[C@@H]3C)O[C@@H]2C)C[C@H](O)[C@@H]1O |  | inactive and active: 1.68 µM |
| O=C(N/N=C/C(Cl)=C\c1ccccc1)c1ccco1 | inactive: -27.6% |  |
| COc1ccccc1NC(=O)c1cccnc1 | inactive: 61.1% |  |
| CC[N+](CC)(CC)CCOc1ccc(/C=C/c2ccccc2)cc1 | inactive: -22.3% |  |
| O=C(COC(=O)c1ccc2c(c1)S(=O)(=O)c1ccccc1C2=O)NC1CC1 | inactive: 54.7% |  |
| CCCCNC(=O)O[C@H]1C[C@@H]2CCN3C(=O)CCC[C@H]([C@H]1CC)[C@H]23 | inactive: -22.5% |  |
| Cn1nnnc1Sc1ncnc2scc(-c3ccc(F)cc3)c12 | inactive: -28% |  |
| COc1ccc(-c2cc(C(F)(F)F)nc(S(=O)(=O)CCCC(=O)Nc3cccc(O)c3)n2)cc1OC | inactive: -33.6% |  |
| O=C(C1CCCCC1)N1CC(=O)N2CCc3ccccc3C2C1 (centres undefined) | inactive: -0.667% [at 56.9 µM] |  |
| Nc1nc2ccc(OC(F)(F)F)cc2s1 |  | inactive |
| CCc1ccc(-c2nc3ccc(Br)cc3c(C(=O)O)c2C)s1 | inactive: -34.8% |  |
| COc1ccc(NC(=O)CCNS(=O)(=O)c2cccc3nonc23)cc1 | inactive: -1.55% |  |
| COc1ccc(NC(=O)Cn2cnc3sc(C)c(S(=O)(=O)N4CCN(C)CC4)c3c2=O)cc1OC | inactive: 4.49% |  |
| CCCCCCCCCCCCCCC[C@H](O)[C@H](N)CO | inactive: 10.9% [at 56.9 µM] |  |
| O=C(CCc1ccc(O)cc1)c1c(O)cc(O)cc1O | inactive: -4.47% |  |
| CN=C1S/C(=C/c2cn(CC(=O)OC)c3ccccc23)C(=O)N1C | inactive: 2.59% |  |
| CN1CCN(CCCN2c3ccccc3Sc3ccc(C(F)(F)F)cc32)CC1 |  | inactive and active: 18.9 µM |
| CN=C(NC#N)NCCSCc1csc(N=C(N)N)n1 | inactive: 30% [at 56.9 µM] |  |
| OCCN(CCO)c1nc(N2CCCCC2)c2nc(N(CCO)CCO)nc(N3CCCCC3)c2n1 | inactive: -0.872% |  |
| Cc1nn(C)c(C)c1C(=O)NN | inactive: 56.7% |  |
| Cc1ccc(S/C(=N/S(=O)(=O)c2ccc(Cl)cc2)c2ccccc2)cc1 | inactive: -51.9% |  |
| Nc1cc(Cl)c(NC2=NCCN2)c(Cl)c1 | inactive: 37% [at 56.9 µM] |  |
| O=C(CCS(=O)(=O)c1cccc2nonc12)Nc1ccc(Br)cc1 | inactive: 14.1% |  |
| Cc1ccc(=O)n(-c2ccccc2)c1 |  | inactive |
| CCC(=O)NC1Cc2ccccc2C(c2ccccc2)C1 (centres undefined) |  | active: 23.8 µM |

| SMILES | activity change, negative = inhibition | Potency |
| --- | --- | --- |
| CCCCC/C=C/C=C1/C(=O)C=C[C@@H]1C/C=C\CCCC(=O)O | inactive: 340% [at 56.9 µM] |  |
| N[C@@H](CS(=O)O)C(=O)O | inactive: 5.56% [at 56.9 µM] |  |
| CCS(=O)(=O)c1ncc(Cl)c(C(=O)Nc2ccc(S(=O)(=O)N(C)c3ccccc3)cc2)n1 | inactive: -102% |  |
| C=CCC1NS(=O)(=O)OC(CCCC)C1O (centres undefined) | inactive: -9.29% |  |
| CC(C)(C)OC(=O)NC(CC(=O)OCc1ccccc1)C(=O)O (centres undefined) | inactive: 22.6% |  |
| CCOC(=O)c1c(C)n(C)c2cc(Br)c(C)cc12 | inactive: 56.5% |  |
| COc1ccc(N2CCN(C(=O)C3CCN(S(=O)(=O)c4cccs4)CC3)CC2)cc1 | inactive: -12.4% |  |
| CN1C(=O)CC[C@H]1c1cccnc1 | inactive: 38.7% [at 56.9 µM] |  |
| NC(=O)CCCCn1ccc(NC(N)=NCC(F)(F)F)n1 | inactive: 380% [at 56.9 µM] |  |
| N[C@@H](Cc1c[nH]c2ccccc12)C(=O)O | inactive: -10.6% [at 56.9 µM] |  |
| CC(C)NC[C@@H](O)COc1ccc(CC(N)=O)cc1 | inactive: -8.28% |  |
| Nc1ncnc2c1nc(Br)n2C1OC2COP(=O)(O)O[C@@H]2C1O (some centres undefined) | inactive: 28.9% [at 56.9 µM] |  |
| C[C@@H](NCCc1ccc(O)cc1)[C@@H](O)c1ccc(O)cc1 | inactive: -2.7% |  |
| CC1=C/C(=C(/c2cc(C)c(O)c(Br)c2)c2ccccc2S(=O)(=O)O)C=C(Br)C1=O | inactive: -37.7% |  |
| NS(=O)(=O)c1cc2c(cc1Cl)NC(C1CC3C=CC1C3)NS2(=O)=O (centres undefined) | inactive: -14.3% |  |
| O=C(O)[C@@H]1C[C@H](C(=O)O)N1 | inactive: -6.65% |  |
| COc1ccc(N2CCN(C(=O)CSc3nnc4c(C)cc5cc(C)ccc5n34)CC2)cc1 | inactive: 54% |  |
| CC1(C)NC(=O)N(CC(=O)NNC(=O)c2ccccc2F)C1=O | inactive: 56.1% |  |
| C=C(C)[C@H]1CC=C(C)C(=O)C1 | inactive: 28.5% |  |
| O=C(NCc1ccco1)c1cnn2cccnc12 | inactive: 71.8% |  |
| CCOC(=O)Cc1csc(NC(=O)/C=C/c2ccccc2Cl)n1 | inactive: 17.8% |  |
| CCc1ccc(CNC(=O)C2CCCN(c3nnc(C)c4c(C)n(-c5ccccc5)nc34)C2)cc1 (centres undefined) | inactive: -9.51% |  |
| N=C(N)c1ccc(N)cc1 | inactive: 8.87% |  |
| CC(=O)O[C@H]1C(=O)[C@@]2(C)[C@H]([C@H](OC(=O)c3ccccc3)[C@]3(O)C[C@H](OC(=O)[C@H](O)[C@@H](NC(=O)c4ccccc4)c4ccccc4)C(C)=C1C3(C)C)[C@]1(OC(C)=O)CO[C@@H]1C[C@@H]2O | inactive: 9.3% |  |
| CCCCN1CC(=O)N2[C@H]3c4cc(OC)ccc4OC[C@@H]3[C@H](C(=O)OCC)[C@]2(C)C1=O | inactive: -1.44% |  |
| NC1CONC1=O (centres undefined) | inactive: 5.7% [at 56.9 µM] |  |

| SMILES | activity change, negative = inhibition | Potency |
| --- | --- | --- |
| COc1ccccc1N1CCN(C(=O)C2CCCN(S(=O)(=O)c3ccc4c(c3)CCCN4C(C)=O)C2)CC1 (centres undefined) | inactive: -3.23% |  |
| CN(C(Cc1ccc(OS(=O)(=O)c2cccc3cnccc23)cc1)C(=O)N1CCN(c2ccccc2)CC1)S(=O)(=O)c1cccc2cnccc12 (centres undefined) | inactive: -190% [at 56.9 µM] |  |
| COc1cccc(OC2OC3COC(C)(C)OC3C(O)C2NC(C)=O)c1 (centres undefined) | inactive: -1.88% |  |
| COCCn1nnnc1C(c1ccc(OC)cc1)N1CCC(C)CC1 (centres undefined) | inactive: 67.7% |  |
| COc1ccc(-n2nc3c(N4CCC(C(=O)NCc5ccccc5C)CC4)nnc(C)c3c2C)cc1 | inactive: -6.53% [at 11.4 µM] |  |
| COc1ccc(N=C2NC(=O)/C(=C/C=C/c3ccccc3)S2)cc1 | inactive: 0.531% |  |
| CCCCCC(CC(=O)NO)C(=O)NC(C(=O)N1CCCC1CO)C(C)C (centres undefined) | inactive: 21.4% |  |
| COc1ccc(-c2ccc3c(N)c(C(=O)c4ccc(OC)c(OC)c4)sc3n2)cc1 | inactive: -27.8% |  |
| C1CCc2nnnn2CC1 |  | inactive |
| CCN(C(=O)Cn1cnc2cc([N+](=O)[O-])ccc2c1=O)C1CCS(=O)(=O)C1 (centres undefined) | inactive: 81.2% |  |
| CC(C)(C)c1ccc(S(=O)(=O)/C=C/C#N)cc1 |  | active: 2.12 µM |
| CCCCC[C@H](O)/C=C/[C@@H]1[C@H]2C/C(=C/CCCC(=O)O)C[C@H]2C[C@H]1O | inactive: 120% [at 56.9 µM] |  |
| CCC(=O)N[C@@H]1Cc2ccccc2[C@@H](c2ccccc2)C1 | inactive: -36.6% [at 56.9 µM] |  |
| COc1ccc(NC(=O)C2CCCN(S(=O)(=O)c3c(C)[nH]c(=O)[nH]c3=O)C2)cc1OC (centres undefined) | inactive: 7.4% |  |
| CC(=O)Oc1ccc(C(=O)N2c3ccccc3NC(=O)C2C)cc1 (centres undefined) | inactive: 54.8% |  |
| CC1CCN=C(N)S1 (centres undefined) | inactive: -22.1% |  |
| CCCCc1ccc(-c2csc(/C(C#N)=C\c3ccc(C)o3)n2)cc1 | inactive: -52.3% |  |
| N#C/C(=C\c1ccc(O)c(O)c1)C(=O)NCCCc1ccccc1 | inactive: 14.8% |  |
| O=C(O)c1cc2cc(Cc3cccnc3)ccc2o1 | inactive: -9.4% [at 56.9 µM] |  |
| COc1ccc(-c2csc3nc(-c4ccccc4)oc(=O)c23)cc1OC | inactive: 6.93% |  |
| Nc1ncnc2c1nc(Br)n2[C@H]1O[C@H]2COP(=O)(O)O[C@H]2[C@@H]1O | inactive: -87.8% [at 56.9 µM] |  |
| O=S1(=O)CCC(NS(=O)(=O)c2cccc3cccnc23)C1 (centres undefined) | inactive: 61.4% |  |
| O=C(CC1SC(=NCc2ccccc2)NC1=O)Nc1ccccc1 (centres undefined) | inactive: 55% |  |
| O=C1OC[C@H]2CCCN2C(=O)[C@@H](CC(=O)N(CCO)Cc2ccccc2)C/C=C\C[C@H]1Cc1ccc(F)cc1 | inactive: 3.23% |  |
| Cc1ccc(-c2ccc(=O)n(CC(=O)NCc3ccc(F)cc3)n2)cc1 | inactive: -42.9% |  |
| Cc1ccc(NP(=O)(Nc2ccc(C)cc2)Nc2ccc(C)cc2)cc1 | inactive: 69.5% |  |
